Data reported in the supplement of paper PMC8183993.
Structures can show the parent of a compound that is named as a salt. ± gives the standard deviation of the averaged measurements. The full ranking holds about 3,200 compounds; the median of “nuclei count (viability) relative to DMSO” is about 99, and the lowest 2% start at about 16. The list shows a part of the results.

test system: U2OS; assay: nuclei count (viability) relative to DMSO (% of DMSO); higher = more viable cells; details: 10 µM; 24 h
Method: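 Primary image-based screen in U2OS cells: compounds at 10 uM for 24 h, then a 1 h o-propargyl-puromycin (OPP) pulse, click labelling, and high-throughput microscopy. Mean cytoplasmic OPP intensity and nuclei count were normalised to DMSO wells within each plate (DMSO = 100) and averaged over triplicate plates.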

Compound | nuclei count
CCCC(C)C1(CC)C(=O)NC(=O)NC1=O (centres undefined) [Pentobarbital] | 96.1
C[C@]12C[C@H]3S[C@H]3C[C@@H]1CC[C@@H]1[C@@H]2CC[C@]2(C)[C@@H](O)CC[C@@H]12 [Epitiostanol] | 105
COP(=O)(OC)C(O)C(Cl)(Cl)Cl (centres undefined) [Trichlorfon] | 102
CNC1CC(N)C(O)C(OC2OC(CO)C(O)C3OC4(OC(C(N)CO)C(O)C(O)C4O)OC23)C1O (centres undefined) [Hygromycin B] | 105
Cn1cc(C2=C(c3cn(C4CCN(Cc5ccccn5)CC4)c4ccccc34)C(=O)NC2=O)c2ccccc21 | 111
Cc1ccc2cc3c(ccc4ccccc43)c3c2c1CC3 [3-Methylcholanthrene] | 93.4
C[C@H](CCC(=O)O)C[C@H](C)C[C@H](C)C(=O)/C=C(\O)[C@H](C)C[C@H](C)C/C=C/[C@@H](C)[C@@H](O)[C@@H](C)[C@@H](O)C[C@@H]1CC[C@@](C)([C@H]2CC[C@@](C)([C@@H](C)O)O2)O1 [Ionomycin] | 25.8
C=CCN1CC[C@]23c4c5ccc(O)c4O[C@H]2C(=O)CC[C@@]3(O)[C@H]1C5 [Naloxone hydrochloride] | 94.6 ± 12
C[C@@H]1CC[C@@]2(OC1)O[C@H]1C[C@H]3[C@@H]4CC=C5C[C@@H](O[C@@H]6O[C@H](CO)[C@@H](O[C@@H]7O[C@@H](C)[C@H](O)[C@@H](O)[C@H]7O)[C@H](O)[C@H]6O[C@@H]6O[C@@H](C)[C@H](O)[C@@H](O)[C@H]6O)CC[C@]5(C)[C@H]4CC[C@]3(C)[C@H]1[C@@H]2C [Dioscin (Collettiside III)] | 9.01
COC(=O)[C@@H](N)CCCNC(=N)N[N+](=O)[O-] [L-NAME hydrochloride] | 81.3
COC(=O)[C@@H](N)CCCNC(=N)N[N+](=O)[O-] | 103
O=C(NCC1CCOCC1)c1cnc(Nc2ccc(Cl)cc2Cl)nc1C(F)(F)F | 97.2
O=C1Nc2ccccc2C2(CCN(CCc3ccc(C(F)(F)F)cc3)CC2)O1 | 96.1
CC(N)Cc1cnc[nH]1 (centres undefined) | 97.3
S=C=Nc1cccc(C2(N3CCCCC3)CCCCC2)c1 [Metaphit] | 94.3
O=C1C=CC[C@@H]2[C@H]3CCCN4CCC[C@@H](CN12)[C@@H]34 [Sophocarpine] | 104
CC(=O)O[C@H]1C[C@@H]2CC[C@@H]3[C@H](CC[C@@]4(C)[C@H]3C[C@H]([N+]3(C)CCCCC3)[C@@H]4OC(C)=O)[C@@]2(C)C[C@@H]1[N+]1(C)CCCCC1 [Pancuronium (Pavulon)] | 106
CC(=O)O[C@H]1C[C@@H]2CC[C@@H]3[C@H](CC[C@@]4(C)[C@H]3C[C@H]([N+]3(C)CCCCC3)[C@@H]4OC(C)=O)[C@@]2(C)C[C@@H]1[N+]1(C)CCCCC1 [Pancuronium bromide] | 103
O=c1c2ccccc2[se]n1-c1ccccc1 [Ebselen] | 100 ± 7
CCCN(CCC)C1Cc2cc(OC)c(OC)cc2C1 | 98.2

Compound | nuclei count
NCC(O)c1ccc(O)cc1 (centres undefined) [Octopamine hydrochloride] | 105
CN1CCCCC1Cn1cc(C(=O)c2cc([N+](=O)[O-])ccc2I)c2ccccc21 (centres undefined) | 98.4
O=c1ccc2cc(O[C@@H]3O[C@H](CO)[C@@H](O)[C@H](O)[C@H]3O)c(O)cc2o1 [Aesculin (Esculin)] | 97.2
Cc1cc(C)cc(C(=O)OC2C[C@H]3CC[C@@H](C2)N3C)c1 (some centres undefined) [Tropanyl-3,5-dimethylbenzoate] | 108
Oc1ccc2c3c1O[C@H]1c4[nH]c5ccccc5c4C[C@@]4(O)[C@@H](C2)N(CC2CC2)CC[C@]314 [Naltrindole hydrochloride] | 95.8
CC(NC(C)(C)C)C(=O)c1cccc(Cl)c1 (centres undefined) [Bupropion hydrochloride] | 105
CC1(C)[C@H](C(=O)O[C@H](C#N)c2cccc(Oc3ccccc3)c2)[C@@H]1C=C(Br)Br [Deltamethrin] | 108
Cc1onc(O)c1CC(N)C(=O)O (racemic) | 83.3
Cc1onc(O)c1CC(N)C(=O)O (racemic) [(RS)-AMPA hydrobromide] | 97.3
NC(=S)N/N=C/c1coc2ccccc2c1=O.[Cl][Cu][Cl] | 95.8
CN1CCC2(C)c3cc(O)ccc3N(C)C12 (single isomer, unassigned; (-)) [(-)-Eseroline fumarate salt] | 61.2
O=C1NC(=O)c2c1c1c3ccccc3n3c1c1c2c2ccccc2n1[C@H]1CC[C@@H]3O1 | 60.9
CC(C)(C)c1cc(C=C(C#N)C#N)cc(Br)c1O | 101 ± 1.6
NC[C@H](CC(=O)O)c1ccc(Cl)cc1 [(R)-baclofen] | 94.7
CC(C)[C@]12O[C@H]1[C@@H]1O[C@]13[C@]1(O[C@H]1C[C@H]1C4=C(CC[C@@]13C)C(=O)OC4)[C@@H]2O [Triptolide] | 28.9
O=C1CC[C@@]2(O)[C@H]3Cc4ccc(O)c5c4[C@@]2(CCN3CC2CC2)[C@H]1O5 [Naltrexone hydrochloride dihydrate] | 105
CN[C@@H]1[C@@H](O)[C@@H](O[C@@H]2[C@@H](O)[C@H](O[C@H]3O[C@H](CN)CC[C@H]3N)[C@@H](N)C[C@H]2N)OC[C@]1(C)O.CN[C@@H]1[C@@H](O)[C@@H](O[C@@H]2[C@@H](O)[C@H](O[C@H]3O[C@H]([C@@H](C)N)CC[C@H]3N)[C@@H](N)C[C@H]2N)OC[C@]1(C)O.CN[C@@H]1[C@@H](O)[C@@H](O[C@@H]2[C@@H](O)[C@H](O[C@H]3O[C@H]([C@@H](C)NC)CC[C@H]3N)[C@@H](N)C[C@H]2N)OC[C@]1(C)O [Gentamicine sulfate] | 110
Cn1c(CCCC(=O)O)nc2cc(N(CCCl)CCCl)ccc21 [Bendamustine HCL] | 81.5
CO[C@H]1CC[C@@H](O[C@H]2C[C@H]([C@]3(C)CC[C@]4(C[C@H](O)[C@@H](C)[C@@H]([C@@H](C)/C=C(\C)C(=O)[C@H](C)C[C@H](C)C(=O)O)O4)O3)O[C@]3(O[C@@H]([C@H]4O[C@@](O)(CO)[C@H](C)C[C@@H]4C)C[C@@H]3C)[C@@H]2C)O[C@@H]1C [Nanchangmycin] | 59.8
